Displacement data for 69 compounds are collected here from PubChem BioAssay AID1240 (Sanford-Burnham Center for Chemical Genomics, 2008).

Structures are written as SMILES. Out of some 50,000 compounds screened, about 800 (1.6%) showed an effect of 50% or more. This is one part of the list.

This test addresses Bcl-2-like protein 10 (Homo sapiens) (UniProt Q9HD36). As to the kind of experiment: TR3 peptide-Bcl-B binding displacers, biochemical primary FP assay, phenotype converters (AID 1240).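 Also: 0% = Bcl-B with tracer peptide and DMSO and 100% = tracer peptide lacking Bcl-B.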 The note with it: GST-Bcl-B / FITC-TR3 peptide fluorescence polarization; stronger effect = higher value; compound at 3.75 mg/L.
Chain of UniProt Q9HD36 (Q9HD36 whole entry, looked up): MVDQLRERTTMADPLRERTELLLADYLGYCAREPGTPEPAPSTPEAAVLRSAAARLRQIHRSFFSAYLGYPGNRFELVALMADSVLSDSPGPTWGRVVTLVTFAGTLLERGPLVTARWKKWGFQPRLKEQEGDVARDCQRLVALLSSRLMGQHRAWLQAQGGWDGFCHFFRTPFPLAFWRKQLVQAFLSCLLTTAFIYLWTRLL
In the case of `CC(C)OC(=O)COc1ccc2c3c(c(=O)oc2c1)CCC3`, the displacement was determined as 0.6%.

Take `Cc1cc(C)cc(NC(=O)C2C3C=CC(O3)C2C(=O)O)c1` (centres undefined): the displacement came to 11.6%.

`O=c1[nH]c(=O)n(Cc2ccccc2)c(O)c1/C=C1\C=CC=N1`: the displacement was determined as 48.7%.

Consider `CCN(CC)c1ccc(/C=N/NC(=O)c2cc(Br)ccc2O)c(O)c1`, for which the displacement was -6.4%.

On to `COc1nnc(-c2ccc(C)cc2)c2ccccc12`, for which the displacement is -9.7%.

For the compound `COc1ccc(OCC(=O)NCCSCc2ccc(Cl)cc2)cc1`, the displacement was determined as 0.8%.

On to `CCOc1cc(C(=O)NCc2ccncc2)cc(OCC)c1OCC`, for which the displacement was -2.1%.

With `CCOC(=O)COc1ccc(/C=C2\C(=O)NC(=O)N(c3ccc(Cl)cc3)C2=O)cc1OCC`, the displacement was determined as 12.9%.

`CCOC(=O)c1c(NC(=O)c2ccc(Cl)cc2)sc(C(=O)Nc2ccccc2OCC)c1C`: the displacement worked out at 3.5%.

Consider `O=C(NCCOc1ccccc1)C(O)(c1ccc(F)cc1)c1ccc(F)cc1`, for which the displacement is -10.9%.

`Cc1ccccc1COc1ccc2oc(C)c(C(=O)O)c2c1`: the displacement came to 9.4%.

For `COc1cc(/C=C2\SC(=S)N(NC(=O)c3ccccc3Br)C2=O)ccc1O`, the displacement was -21.3%.

As for `Cc1ccc(S(=O)(=O)Oc2ccc(Br)cc2C=C2C(=O)NC(=S)NC2=O)cc1`, the displacement is -16.9%.

For `Cc1cc(OCC(=O)O/N=C(\N)c2ccc(Cl)cc2)ccc1Br`, the displacement was 0.4%.

For the compound `CC1=C(C(=O)OCc2ccccc2)C(c2ccccc2Cl)NC(=O)N1` (centres undefined), the displacement was found to be 14.7%.

Turning to `O=C(Nc1cccc(Br)c1)/C(=C\c1cccs1)NC(=O)c1cccs1`, the displacement was -5%.

`O=S(=O)(Nc1ccc(Cl)cn1)c1ccc2ccccc2c1`: the displacement was -4.2%.

As to `COc1ccccc1N1CCN(/N=C2/C(=O)Nc3ccccc32)CC1`, the displacement was determined as 3.9%.

Take `CC1CCN(CCC(=O)N/N=C/c2ccc([N+](=O)[O-])cc2)CC1`: the displacement was -10.9%.

For the compound `CCOC(=O)C(CC)Oc1ccc2c(C)c(CC)c(=O)oc2c1C` (centres undefined), the displacement is -2.4%.

On to `Cn1c2c(c(=O)n(C)c1=O)C(c1ccccc1)C1=C(N2)c2ccccc2C1=O` (centres undefined), for which the displacement was 5.8%.

On to `Cc1ccc(N(CC(=O)O)S(C)(=O)=O)cc1C`, for which the displacement came out at 8.2%.

With `Cc1cc(NS(=O)(=O)c2ccc(NC(=O)C(Cl)(Cl)Cl)cc2)nc(C)n1`, the displacement was 1.3%.

For `CC(=O)c1cccc(NC(=O)c2ccccc2N(Cc2ccccc2)S(=O)(=O)c2ccccc2)c1`, the displacement stood at 3%.

Regarding `C/C(=N\NC(=O)c1ccccc1[N+](=O)[O-])c1c(O)cc(C)oc1=O`, the displacement was -3.1%.

Turning to `O=C(/C=C/c1ccco1)Nc1cccc(F)c1`, the displacement was -0.3%.

Regarding `COC(=O)CNC(=O)c1ccc(NC(C)=O)cc1`, the displacement was 10%.

As for `CCOC(=O)c1oc2c(c1C)/C(=N/OC(C)=O)CCC2`, the displacement is -2.3%.

Take `O=C(Cc1ccccc1)NC(NC(=S)Nc1ccccc1Cl)C(Cl)(Cl)Cl` (centres undefined): the displacement was determined as 3.9%.

`COc1cc(/C=c2\sc3nc4ccccc4n3c2=O)ccc1OS(=O)(=O)c1ccccc1`: the displacement amounted to 13.4%.

`CCOC(=O)/C(C#N)=C\c1ccc(F)cc1`: the displacement was determined as 2.3%.

For `Cc1ccccc1-c1cc(C(=O)Nc2ncccc2C)c2ccccc2n1`, the displacement is -39.1%.

On to `Cc1ccc(S(=O)(=O)N(CC(O)CN2CCOCC2)c2cccc3ccccc23)cc1` (centres undefined), for which the displacement was -1.2%.

With `Cc1cc(OCC(=O)NCCCN(C)C)ccc1Br`, the displacement stood at 0.7%.

Consider `O=C(Nc1ccc(Cl)c(Cl)c1)c1cnn2c1NC(c1ccccc1)CC2C(F)(F)F` (centres undefined), for which the displacement is -10.4%.

On to `Cc1c(NC(=O)CCN2C(=O)c3ccccc3C2=O)c(=O)n(-c2ccccc2)n1C`, for which the displacement is -13.6%.

Take `COc1ccc(C2=N/C(=C/c3ccccc3OC)C(=O)N2c2ccccc2)cc1`: the displacement was determined as 6.4%.

For the compound `Nc1nnc(SCc2ccccc2F)s1`, the displacement was 1.4%.

For the compound `Cc1ccc(/C=C2\SC(=S)N(NC(=O)c3cccc([N+](=O)[O-])c3)C2=O)cc1`, the displacement was -1.6%.

Turning to `C/C=C/COC(=O)C1=C(C)NC(=O)NC1c1ccccc1F` (centres undefined), the displacement was determined as 3%.

With `O=C(Nc1nc(C23CC4CC(CC(C4)C2)C3)cs1)C(=O)NC1CC1`, the displacement was -3.8%.

As to `O=C1CCCCC1C(Nc1ccc2ncccc2c1)c1ccc(F)cc1` (centres undefined), the displacement stood at 2.3%.

As for `O=C(Nc1ccc(-c2nc3ccccc3s2)cc1)c1cccc(C(F)(F)F)c1`, the displacement turned out to be 9.6%.

On to `CCOC(=O)C1=C(C)NC2=C(C(=O)CCC2)C1c1ccc(Br)s1` (centres undefined), for which the displacement stood at 7.9%.

With `O=C(O)c1ccc(-c2n[nH]c(=O)c3ccccc23)cc1`, the displacement is 29.5%.

Regarding `Cc1ccc2nc(NC(=O)c3cccc4ccccc34)sc2c1`, the displacement is -6.7%.

On to `Cc1ccc(S(=O)(=O)C(CC(=O)c2cccs2)c2ccc(Cl)cc2)cc1` (centres undefined), for which the displacement is -0.9%.

For the compound `O=C(NC(=S)Nc1cc(-c2nc3ccccc3s2)ccc1Cl)c1ccc(Cl)cc1`, the displacement came to 37.3%.

`O=C1CC(Cc2ccc(Br)cc2)C(=O)N1Cc1ccccc1` (centres undefined): the displacement was 9.6%.

`O=C(NCc1ccncc1)c1ccc(-c2ccccc2)cc1`: the displacement was found to be 3.6%.

For `COc1cc(OC)cc(C(=O)Nc2ccc(N3CCOCC3)cc2)c1`, the displacement is -1.3%.

For the compound `Cc1ccc2oc(-c3cc(NC(=O)/C=C/c4cccc([N+](=O)[O-])c4)ccc3O)nc2c1`, the displacement came out at 4.7%.

Consider `CC(N=Cc1ccc(O)cc1)C1COc2ccccc2O1` (centres undefined), for which the displacement came out at 1.4%.

On to `CCCCCc1ccc(-c2ccc(-c3ncc([N+](=O)[O-])cn3)cc2)cc1`, for which the displacement was 1.7%.

For `Cc1cccc(OCCn2cc(C=C3C(=O)NC(=S)NC3=O)c3ccccc32)c1`, the displacement is 11.2%.

Turning to `O=C1NN(c2ccccc2)C(=O)/C1=C\c1cccc(I)c1`, the displacement was 23%.

As for `COc1ccc(OC(=O)c2ccc(Br)c(S(=O)(=O)N3CCCCC3)c2)cc1`, the displacement is -12%.

Take `CCc1nnc(NC(=O)c2ccc(Br)o2)s1`: the displacement was determined as 24.7%.

In the case of `Cc1ccc(C(=O)NCCN2Cc3ccccc3C2=O)cc1`, the displacement worked out at 10.5%.

Consider `O=C(Nc1ccccc1)Nc1nnc(-c2ccccc2F)s1`, for which the displacement is 10%.

As for `COc1ccc(OC)c(Nc2nc3nonc3nc2N2CCCCC2)c1`, the displacement was determined as 2.3%.

Consider `CCOc1ccc(N(CC(=O)NCCCN(C)C)S(C)(=O)=O)cc1`, for which the displacement was determined as 3.2%.

Regarding `O=C(NC(=S)Nc1ccc(NC(=O)c2ccc(Cl)cc2Cl)cc1)c1ccccc1`, the displacement came out at 9%.

Turning to `COc1ccc(N(Cc2ccc(C(=O)NCc3ccccc3OC)cc2)S(=O)(=O)c2ccccc2)cc1`, the displacement stood at 9.6%.

On to `CCOc1cc(C(=O)NCc2ccco2)cc(OCC)c1OCC`, for which the displacement amounted to 5.4%.

As to `N#Cc1ccc(/C=N/Nc2nc(-c3ccccc3)cs2)cc1`, the displacement is -23.2%.

`Cc1cccc(N2C(=O)NC(=O)/C(=C/c3ccccc3C)C2=O)c1`: the displacement was -13.5%.

On to `O=C1c2cccc3cccc(c23)C(=O)N1CCN1CCN(S(=O)(=O)c2ccc(I)cc2)CC1`, for which the displacement is -6.9%.

Turning to `Cc1n[nH]c(C)c1CCC(=O)N/N=C/c1ccc(O)cc1`, the displacement is -14.1%.
